# Measured values published in the supplement of paper PMC5919970.
# Counter-ions that a name gives are not always drawn. The full ranking holds about 2,000 compounds; the median of “fractional viability relative to vehicle” is about 0.91, and the lowest 2% start at about 0.045. The list shows a part of the results.
# Test system: TYKNU
# Test: fractional viability relative to vehicle; TYKNU is a high-grade serous ovarian cancer line; higher = less growth inhibition
# Conditions: 72 h
# Method in brief: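 Drug treatment lasted 72 h, with cells grown at 37 °C in 5% CO2 in RPMI 1640 supplemented with 10% FBS. Beforehand, TYKNU control cells or their lentiCRISPRv2 knockout derivatives had been seeded at 500 cells per well into drug-stamped 384-well plates carrying a ~2100-compound library at 2 or 10 μM, in duplicate. Viability came from Cell Titer Glo luminescence, with averaged duplicate treatment wells normalised to duplicate control wells in the same plate position.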
# [1] = 2uM, genotype: DNM1L knockout (sgDNM1L #1)
# [2] = 2uM, genotype: sgCTRLA1 (non-targeting control)
# [3] = 10uM, genotype: DNM1L knockout (sgDNM1L #1)
# [4] = 10uM, genotype: sgCTRLA1 (non-targeting control)
SMILES,fractional viability [1],fractional viability [2],fractional viability [3],fractional viability [4]
CC(ONC(=O)c1cc(C(F)(F)F)cc(C(F)(F)F)c1)C(=O)Nc1ccc(Cl)cc1 (configuration not stated),0.763,1,0.808,0.687
OC[C@@H](O)CN1CCN(c2ccccc2)CC1 [Levodropropizine],0.967,1.05,0.814,1.04
N#CC1(c2ccc(NC(=O)c3cccnc3NCc3ccncc3)cc2)CCCC1 [Apatinib],0.974,1.17,0.801,0.98
NCCc1ccc(O)c(O)c1 [Dopamine HCl],0.312,0.46,0.153,0.181
Cn1cnc2c(F)c(Nc3ccc(Br)cc3Cl)c(C(=O)NOCCO)cc21 [Selumetinib (AZD6244)],0.519,0.519,0.359,0.278
Nc1nc(N)c2nc(-c3cccc(O)c3)c(-c3cccc(O)c3)nc2n1,1.12,1.21,0.829,1.05
CN(Cc1cc(Br)cc(Br)c1N)C1CCCCC1 [Bromhexine HCl],0.973,0.983,0.877,1.06
C[C@H](CS)C(=O)N1CCC[C@H]1C(=O)O [Captopril],1.02,1.18,0.968,1.08
Cn1c(N2CCCCS2(=O)=O)nc(C(=O)NCc2ccc(F)cc2)c(O)c1=O,0.975,1.2,0.9,1.14
O=C(c1ccccc1)c1ccc2nc(NC(=O)c3csc(C4CCN(c5ncnc6ccsc56)CC4)n3)[nH]c2c1,0.749,1.15,0.481,0.328
C[N+](C)(C)CC(O)CC(=O)[O-] (racemic) [DL-Carnitine HCl],0.978,1.07,0.892,1.11
CCS(=O)(=O)N1CCN(c2ccc(Nc3ncc(C(N)=O)c(NC4CC4)n3)cc2)CC1,1.08,0.892,0.331,0.263
C[N+](C)(C)C[C@H](O)CC(=O)[O-] [L-carnitine],1.12,1.14,0.8,1.07
Cc1ccc(C(=O)Cn2c3c(sc2=N)CCCC3)cc1 [Pifithrin-_ (PFT_)],0.969,1.1,0.714,1.11
CC(C)(C)NC(=O)[C@H]1CC[C@H]2[C@@H]3CC[C@H]4NC(=O)C=C[C@]4(C)[C@H]3CC[C@]12C [Finasteride],1.01,1.12,0.851,1.06
C=CC[N+]1([C@H]2C[C@H]3[C@@H]4CC[C@H]5C[C@H](O)[C@@H](N6CCOCC6)C[C@]5(C)[C@H]4CC[C@]3(C)[C@H]2OC(C)=O)CCCC1 [Rocuronium Bromide],0.905,1.05,0.906,0.882
C=C1CC[C@H](O)C/C1=C/C=C1\CCC[C@]2(C)[C@@H]([C@H](C)/C=C/[C@H](C)C(C)C)CC[C@@H]12 [Vitamin D2],1.19,1.02,0.175,0.739
Nc1nc(N)c2nc(-c3ccccc3)c(N)nc2n1 [Triamterene],0.971,0.889,0.816,1.01
C=C1C(=O)O[C@H]2[C@H]1CC/C(C)=C/CC[C@@]1(C)O[C@@H]21 [(-)-Parthenolide],0.336,0.595,0.0299,0.0264
COc1ccc(CCC(=O)Nc2nc3ccc(Cl)cc3s2)cc1OC,0.985,1.16,0.657,0.999
CCCCOc1ccc(C(=O)CCN2CCCCC2)cc1 [Dyclonine HCl],0.901,1.06,0.908,0.917
CC(C)(C)CC(C)(C)c1ccc(OCCOCC[N+](C)(C)Cc2ccccc2)cc1 [Benzethonium Chloride],0.655,0.806,0.0602,0.0999
O=[N+]([O-])c1cn2c(n1)OC[C@@H](OCc1ccc(OC(F)(F)F)cc1)C2,1.21,1.09,1.25,1.12
Cn1nnc2c(C(N)=O)ncn2c1=O [Temozolomide],1.08,0.965,0.764,0.836
O=c1cc[nH]c(=O)[nH]1 [Uracil],0.771,1.16,0.881,1.03
COc1ccc(-c2cc(=O)c3c(OC)c(OC)c(OC)c(OC)c3o2)cc1OC [Nobiletin],1.1,1.2,1.11,1.11
CCOC(=O)N1c2ccc(C(F)(F)F)cc2[C@@H](N(Cc2cc(C(F)(F)F)cc(C(F)(F)F)c2)C(=O)OC)C[C@H]1CC [Torcetrapib],0.889,1.07,0.695,0.991
Cc1ccc(C(=O)Nc2cccc(C(F)(F)F)c2)cc1Nc1nc(-c2cccnc2)nc2c1cnn2C,0.712,0.928,0.164,0.207
